According to article PMC4336329 (PLoS ONE, 2015):
The whole screen tested about 310,000 compounds, of which about 14,000 (4.5%) showed an effect of 50% or more. Effects have a minus sign here. Some of the results follow.

target: human ether-à-go-go-related gene (hERG) potassium channel (human, UniProt Q12809); experiment: primary screen, population patch clamp on CHO cells stably expressing hERG
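Further: peak tail current of the secondary pulse compared with the same well before compound.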

Sequence of human ether-à-go-go-related gene (hERG) potassium channel (Q12809 whole entry, looked up): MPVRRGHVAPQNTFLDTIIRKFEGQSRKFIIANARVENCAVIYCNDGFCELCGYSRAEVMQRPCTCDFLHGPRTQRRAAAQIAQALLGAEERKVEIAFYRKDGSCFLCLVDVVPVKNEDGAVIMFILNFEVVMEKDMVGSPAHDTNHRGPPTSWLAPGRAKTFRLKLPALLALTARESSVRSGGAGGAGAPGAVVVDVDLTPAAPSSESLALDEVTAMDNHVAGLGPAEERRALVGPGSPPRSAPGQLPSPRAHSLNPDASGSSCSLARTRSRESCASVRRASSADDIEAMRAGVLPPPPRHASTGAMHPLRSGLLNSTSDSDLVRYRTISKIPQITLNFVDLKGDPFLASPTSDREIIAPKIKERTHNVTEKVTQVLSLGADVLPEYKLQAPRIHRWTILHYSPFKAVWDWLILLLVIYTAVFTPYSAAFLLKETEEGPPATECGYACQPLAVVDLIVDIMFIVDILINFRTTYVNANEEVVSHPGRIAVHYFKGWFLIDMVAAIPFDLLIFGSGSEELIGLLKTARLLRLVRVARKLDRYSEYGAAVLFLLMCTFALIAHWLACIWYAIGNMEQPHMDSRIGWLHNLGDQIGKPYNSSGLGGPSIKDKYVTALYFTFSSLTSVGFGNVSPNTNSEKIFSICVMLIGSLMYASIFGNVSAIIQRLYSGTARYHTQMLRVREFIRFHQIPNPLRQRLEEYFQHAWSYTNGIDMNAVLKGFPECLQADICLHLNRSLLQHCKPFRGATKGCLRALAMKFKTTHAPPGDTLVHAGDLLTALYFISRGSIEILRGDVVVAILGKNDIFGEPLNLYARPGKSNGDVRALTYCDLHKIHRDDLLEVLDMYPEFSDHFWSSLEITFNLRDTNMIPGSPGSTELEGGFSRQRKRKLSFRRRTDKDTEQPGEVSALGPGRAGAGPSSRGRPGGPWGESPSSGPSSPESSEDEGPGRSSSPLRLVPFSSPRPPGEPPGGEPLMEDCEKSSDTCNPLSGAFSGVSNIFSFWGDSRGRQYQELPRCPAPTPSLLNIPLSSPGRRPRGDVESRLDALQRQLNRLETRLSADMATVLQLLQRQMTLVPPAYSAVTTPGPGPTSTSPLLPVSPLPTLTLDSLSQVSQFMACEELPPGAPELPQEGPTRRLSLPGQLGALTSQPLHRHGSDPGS

Structure (SMILES) | hERG current change (%, negative = inhibition) at 10uM [%]
Cc1cc(C)c(NC(=O)CNC(=O)Cc2ccc(S(=O)(=O)N3CCOCC3)s2)c(C)c1 | -1.76
COc1cc(/C=C2/SC(=O)N(CC(=O)N3CCCC3)C2=O)ccc1Oc1ccc([N+](=O)[O-])cn1 | -22.2
O=C(CSc1nc(-c2ccco2)cc(C(F)(F)F)n1)N1CCN(Cc2ccccc2)CC1 | -58.8
O=C(CCN1CCN(Cc2ccccc2)CC1)NNC(=O)Nc1cccc([N+](=O)[O-])c1 | -32.6
C=CCSc1nc(=O)n2ccccc2n1 | 9.57
COc1cccc(-c2cc(C(=O)Nc3nc4ccccc4s3)c3ccccc3n2)c1 | -13.6
CC(C)(C)OC(=O)[C@H](Cc1ccccc1)NC(=O)c1nc[nH]c1C(=O)NCC(=O)OCc1ccccc1 | -1.82
CC1(OC(=O)CCc2ccccc2)C(=O)C=C2C=C(c3ccc(C#N)cc3)N(c3ccccc3)C=C2C1=O (stereo not drawn) | 14.3
Cc1ccc(CNC(=O)CN2C(=O)CSc3ccc(S(=O)(=O)N4CCCCC4)cc32)cc1 | -47.9
CCCc1cc(=O)[nH]c(SCC(=O)N2CCN(S(=O)(=O)c3ccc(Cl)cc3)CC2)n1 | 4.81
CCOC(=O)c1c(-c2ccc(OC)cc2)csc1NC(=O)CCN1C(=O)c2ccccc2C1=O | -9.76
COC(=O)[C@@]1(Cc2ccc(F)cc2)[C@@H]2[C@@H](CC(=O)[C@H]2CC(=O)C(=O)N(C)C)CN1C(=O)c1ccccc1 | -16.6
CCOc1ccc(NC(=O)CN(C)C(=O)c2ccccc2OCc2c(C)noc2C)cc1OCC | 5.25
CC(C)CCn1c(N2CCc3ccccc3C2)nc2c1c(=O)[nH]c(=O)n2C | -2.34
CCCN1C(=O)CC(C(=O)OC)=C1C | 12.9
COc1cc(/C=C/C(=O)OCC(=O)Nc2ccc3c(c2)OCCO3)ccc1O | 2.9
CS(=O)(=O)N1CCc2cc(C(=O)N3CCOCC3)ccc21 | 13.8
CCc1nc(SCC(=O)Nc2ccccc2Cl)n[nH]1 | 17.1
O=C(O)CNS(=O)(=O)c1c(Cl)cccc1Cl | 2.98
Nc1nonc1-c1nc2ccccc2n1CC(=O)N/N=C/c1ccc(-c2ccccc2C(=O)O)o1 | 5.75
COc1cc(OC)cc(C(=O)Nc2cccnc2)c1 | 14.4

Structure (SMILES) | hERG current change (%, negative = inhibition) at 10uM [%]
CCOC(=O)c1c(C)oc2ccc(OC(=O)c3cccs3)cc12 | -5.96
Cc1cccc(OCCOCCN2CCNCC2)c1C.O=C(O)C(=O)O | -11.2
OC(CCN1CCOCC1)c1ccccc1 (stereo not drawn) | 4.54
O=C(CSc1nc2ccccc2s1)N1c2ccccc2Sc2ccc(C(F)(F)F)cc21 | 5.56
COc1ccc(-c2nnc(SCC(=O)NC(=O)NCc3ccco3)o2)cc1 | 11.8
CCCN(CC(=O)Nc1ccccc1OC)C(=O)Cc1ccc2c(c1)CCC2 | -18.1
O=C(NCc1n[nH]c(=S)n1-c1ccc(Br)cc1)c1ccc(S(=O)(=O)N2CCCC2)cc1 | 13.7
O=C1NC(=O)N(c2cccc(Cl)c2)C(=O)/C1=C\c1ccc(Sc2nc3ccccc3[nH]2)o1 | 13.9
CC(=O)c1ccc(N2CCN(C(=O)Nc3ccc(F)cc3)CC2)cc1 | -24.5
Nc1c(C(=O)NCC2CCCO2)sc(=S)n1-c1ccccc1 (stereo not drawn) | -1.09
Cc1cccc(C2NC(=O)c3c(sc(C)c3C)N2)c1O (stereo not drawn) | 13.9
CN(Cc1ccco1)c1ncnc2ccc(-c3ccc4c(ccn4C)c3)cc12 | 14.2
COc1ccc(C2=NOC(C)(c3sc(-c4ccc(Cl)cc4)nc3C)C2)cc1 (stereo not drawn) | 15.2
O=S(=O)(c1ccc(F)cc1)n1ccc(-c2cnc(-c3ccccc3)s2)n1 | -3.22
CCCN(Cc1cc2ccccc2[nH]c1=O)C(=O)c1cccc([N+](=O)[O-])c1 | -16.8
CC(C)NC(=O)C(C)N1CCN(S(=O)(=O)c2ccc3ccccc3c2)CC1 (stereo not drawn) | 5.36
CC(C)(C)OC(=O)CNC(=O)c1[nH]cnc1C(=O)NCCCCC[NH3+].[Cl-] | 9.23
COC(=O)C1=C(c2ccc3ccccc3c2)C[C@@H]2CC[C@H]1N2C(=O)NCc1ccco1 | -8.46
Cc1ccc(CSCC(=O)Nc2ccccc2F)cc1 | 1.59
CCN(CC(=O)Nc1cccc(S(=O)(=O)N2CCCC2)c1)CC(=O)Nc1ccccc1OC | -4.68
O=C(CN1C(=O)NC2(CCCc3ccccc32)C1=O)c1ccc(F)cc1 (stereo not drawn) | -17

Structure (SMILES) | hERG current change (%, negative = inhibition) at 10uM [%]
COc1cccc(CNS(=O)(=O)c2cc(CN3C(=O)c4cccnc4C3=O)ccc2OC)c1 | 4.2
O=C(CSCc1ccccc1Cl)N/N=C/c1ccco1 | 17.2
COCCCNC(=O)Cn1c(=O)n(Cc2ccc(C(=O)NCCc3ccc(OC)c(OC)c3)cc2)c(=O)c2ccccc21 | 0.0428
Cc1cccc(-n2nnnc2SCn2nnc3ccccc3c2=O)c1 | -17.8
O=C(Nc1ccccc1C(=O)NCc1ccco1)c1ccco1 | -25
CCN(CC)S(=O)(=O)c1ccc(-c2nnc(SCC(=O)N3CCOCC3)o2)cc1 | -5
O=C(COC(=O)/C=C/c1ccc(C(F)(F)F)cc1)NC1CCCC1 | 15.7
N=C1C(c2nc3ccccc3[nH]2)=C(O)CN1c1ccc(CC(=O)O)cc1 | 13.3
Cn1c(=O)oc2cc(S(=O)(=O)N3CCCC(C(=O)NCc4ccc5c(c4)OCO5)C3)ccc21 (stereo not drawn) | -5.35
COc1ccc(-c2nc3ccccc3n2OCC(=O)O)cc1 | 18.5
C=CCN1C(=O)CSc2ccc(C(=O)NC3CCCCC3)cc21 | 2.93
N=C1/C(=C/c2cccs2)C(=O)N=C2SN=C(SCc3ccccc3)N12 | 6.75
COc1ccc2nc(Nc3nc(-c4ccncc4)cs3)sc2c1 | 17.9
Cc1ccc(C(=O)N/N=C\c2sccc2C)cn1 | 13.2
N#Cc1cn(-c2ccccc2)nc1-c1cc2ccccc2oc1=O | 8.72
O=C(COC(=O)c1cncc(Br)c1)NCCC1=CCCCC1 | 13.3
CCOC(=O)c1ccn(-c2nc(-c3ccco3)cc(C(F)(F)F)n2)n1 | -14.5
COc1ccc(CCC(=O)N2CCN(S(=O)(=O)c3cccc(C(F)(F)F)c3)CC2)cc1OC | -29.6
O=C(c1cccs1)N(Cc1cccc(F)c1)C1CCS(=O)(=O)C1 (stereo not drawn) | -14.9
CNC(=O)Cc1nc2ccccc2n1CC(=O)Nc1cc(C)cc(C)c1 | 27.8
O=C(O)CSc1nc2ccccc2n1C1CCCCC1 | 15.8

Structure (SMILES) | hERG current change (%, negative = inhibition) at 10uM [%]
CCOC(=O)c1c(C)[n+](-c2ccc(C)cc2)c(CC)c2cc(OC)c(OC)cc12.[Cl-] | -39.7
Cc1cc(C(=O)CN2C(=O)NC3(CCCc4ccccc43)C2=O)c(C)n1Cc1cccs1 (stereo not drawn) | -1.7
COc1ccc(N2CC(C(=O)Nc3nnc(Cc4ccccc4)s3)CC2=O)cc1 (stereo not drawn) | 3.46
Cc1ccc(NC(=S)NN2CCN(C)CC2)cc1 | -6.61
CC1Cc2ccccc2N1C(=O)COC(=O)c1cccc(Br)c1 (stereo not drawn) | 2.48
CC(C)(C)c1ccccc1OCC(=O)NCCC(=O)O | -7.3
C=CCn1c(SCC(=O)c2ccc(Cl)s2)nc2ccccc2c1=O | 8.5
CN(C)S(=O)(=O)c1ccc(C(=O)Nc2nc(-c3ccccc3)c(C(=O)c3ccccc3)s2)cc1 | 7.84
O=C(CN(CC1CCCO1)C(=O)CNS(=O)(=O)c1ccc(Cl)cc1)NCC1CCCO1 (stereo not drawn) | 11.3
CC(=O)N1CCN(Cc2nc3cc(NC(=O)c4ccc(F)cc4)ccc3n2C)CC1 | -8.9
CN(C)CCCC1(O)c2ccccc2CCc2ccccc21 | 7.52
COc1ccc(CC(=O)Nc2ccc(-c3noc(COc4ccccc4C)n3)cc2)cc1 | 2.1
COc1ccccc1NC(=O)COC(=O)c1cnc(C)cn1 | 15.7
CC(=O)c1cccc(S(=O)(=O)NCC(c2ccco2)N2CCCCC2)c1 (stereo not drawn) | -24.1
C(=N\Nc1nc(-c2cccnc2)nc2ccccc12)/c1ccccc1 | -24.7
COc1ccc(CCNC(=O)C(=O)N2CCCCC2)cc1OC | 13.3
CCn1c(SCC(=O)Nc2ccc(-c3nc4ccc(C)cc4s3)cc2)nnc1-c1ccccc1 | 4.57
Cc1cccc(CNCc2ccccc2)c1.Cl | -7.31
C=CCN1C(=O)CN=C1Nc1ccc(F)cc1 | 9.44
CC1=NN(C(=O)COc2ccccc2)C(O)(c2cccnc2)C1 (stereo not drawn) | 17.8
CCCn1c(N)c(C(=O)CN2CCN(S(=O)(=O)c3cccs3)CC2)c(=O)[nH]c1=O | -22.9
